Test results: PubChem BioAssay AID1347073 (National Center for Advancing Translational Sciences (NCATS), 2019)
Screen size: about 45,000 compounds; about 200 (0.44%) were called active. Inconclusive results (about 7%) are left out. Calls come from the whole dose curve; as a rule, active = well fitted activation curve with a large enough effect; inconclusive = small, poorly fitted or top-dose-only effect; inactive = no such curve, though single readings can be large or run the other way. Some of the results follow.

Experiment: qHTS of TDP-43 Inhibitors: NCGC Sytravon Library Screen; note: 0% is about no effect; nearly all actives have a fitted effect of over 55% in size
Settings: yeast TDP-43 toxicity rescue, BacTiter-Glo growth, 24 h; series mostly up to 46.1 µM; growth rescue (activation): at the top concentration
Summary of the method: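 TDP-43-expressing yeast, pregrown in raffinose, seeded at OD600 0.02 in galactose medium with compound for 24 hr at 30 deg C. Growth read by BacTiter-Glo luminescence, so rescue of toxicity appears as activation.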

SMILES | growth rescue (activation)
CCN1CCN(C(=O)CSc2nc3c(c(=O)n(C)c(=O)n3C)n2C)CC1 | inactive: 6.33%
O=C(NC1CC1)C1CCN(S(=O)(=O)c2cc(Cl)ccc2Cl)CC1 | inactive: -5.4%
COc1ccc(/C=N/NC(=O)c2cccnc2)cc1CSc1ccccn1 | inactive: 6.51%
Cc1c(-c2nc(-c3ccc4c(c3)OCO4)no2)nnn1-c1ccc(Br)cc1F | inactive: 20.8%
Cc1noc(NC(=O)c2cccc(Cl)c2Cl)c1C#N | inactive: 16%
CCc1nc2ccc(C(=O)Nc3ccc(OC)c(OC)c3)cn2c1N(CC)Cc1cccc(Br)c1 | inactive: 14.2%
CC(C)CC(NC(=O)C(NC(=O)OC(C)(C)C)C(C)C)C(=O)N1CCCC1C(N)=O (stereo not drawn) | inactive: 11%
CCC(=O)Nc1cccc(NC(=O)c2cccc([N+](=O)[O-])c2C)c1 | inactive: -8.96%
COc1ccc(CNC(=O)C2=CCN(S(=O)(=O)c3ccc(C)cc3)CC2)cc1 | inactive: 18.2%
Cc1ccc(C(NC(=O)Nc2ccccn2)C(Cl)(Cl)Cl)cc1F (stereo not drawn) | inactive: 21.1%
O=C(COc1ccc2ccccc2c1)Nc1cccnc1Cl | inactive: 17.5%
CC(C)c1ccccc1NC(=O)CN1C(=O)c2ccccc2C1=O | inactive: 9.4%
CCN(CC(=O)Nc1ccccc1OC)C(=O)CCc1ccccc1 | inactive: 7.51%
Cc1csc(CNC(=O)C2CCC(=O)N(CCc3cccc(F)c3)C2)n1 (stereo not drawn) | inactive: 16.6%
Cc1ccc(S(=O)(=O)N2CCC(C(=O)N/N=C/c3cccn3C)CC2)cc1 | inactive: 16.9%
COc1ccc(NC(=O)c2c(C)nn(Cc3ccccc3)c2C)cc1S(=O)(=O)N(C)C | inactive: 9.7%
O=C(COC(=O)C1CCCCC1)Nc1cccc(F)c1 | inactive: 5.92%
O=C(O)CCCCCNc1ncnc2ccc(Br)cc12 | inactive: -9.64%
CC(C)CCN(C(=O)c1ccccn1)c1c(N)n(Cc2ccccc2)c(=O)[nH]c1=O | inactive: -0.814%
Cc1ccc(C(=O)N/C(=C/c2ccco2)C(=O)O)cc1 | inactive: 2.03%
Clc1ccccc1C1=CC(c2ccco2)n2nnnc2N1 (stereo not drawn) | inactive: 13.6%
Cc1ccc(NC(=O)CSc2nnnn2-c2cccnc2)c(C)c1 | inactive: 15.5%
COC(=O)CSc1nc(N)nc(C)c1Cl | inactive: -1.16%
O=C(Nc1ccc(Cl)cc1)c1csc([C@@H]2C[C@H](O)[C@@H](CO)O2)n1 | inactive: -2%
O=C(Cn1c(=O)sc2ccccc21)Nc1ccc(O)cc1 | inactive: -6.86%
COc1ccc(NC2=NCCC2)cc1 | inactive: -8.91%
CC(/C=N/n1c(-c2ccccn2)n[nH]c1=S)=C\c1ccccc1 | inactive: 7.14%

SMILES | growth rescue (activation)
O=C(CNS(=O)(=O)c1ccc(Br)cc1)NC1CCCC1 | inactive: 14.2%
O=C(O)COc1ccccc1/C=N/NC(=O)CSc1nc2ccccc2n1Cc1ccccc1 | inactive: 16.4%
CCN(C(=O)COC(=O)C(Cc1ccccc1)N1C(=O)c2ccccc2C1=O)C1CCS(=O)(=O)C1 (stereo not drawn) | inactive: -3.55%
COc1ccc(NC(=O)/C(C#N)=C/c2ccc3c(c2)n(C)c(=O)n3C)cc1 | inactive: 4.01%
Cc1nn(C)cc1/C=N/NC(=O)c1ccco1 | inactive: 7.84%
CN(C)c1ccc(C(C(=O)NCc2ccccc2)N(Cc2cccnc2)C(=O)c2snc(C(N)=O)c2N)cc1 (stereo not drawn) | inactive: -2.1%
CC(C)Oc1cccc(C(=O)C2CCCN(C(=O)c3noc4c3CCCC4)C2)c1 (stereo not drawn) | inactive: 13.4%
CCCCn1c(=O)[nH]c(=O)c2c1nc(-c1cc(Br)ccc1OC)n2C | inactive: 14.7%
COc1ccc(-n2c(SCC(=O)O)nnc2-c2ccc(NC(=O)c3ccccc3)cc2)cc1 | inactive: 13.4%
Cc1ccccc1NC(=O)c1cc(C(=O)c2cc(Cl)ccc2O)cn(-c2ccccc2C)c1=O | inactive: 12%
CC(C)c1c(O)nc(SCCOc2ccc(Cl)cc2)[nH]c1=O | inactive: 17.5%
Cc1nc(SCC(=O)NNC(=O)c2cccs2)[nH]c(=O)c1C | inactive: 0.347%
C(=N\c1nc2ccccc2n1CCN1CCOCC1)/c1cccs1 | inactive: 17%
CN1CCN(S(=O)(=O)c2ccc(NCc3ccc4c(c3)OCO4)nc2)CC1 | inactive: 21.6%
O=C(CSc1n[nH]c(-c2ccco2)n1)Nc1ccc(F)cc1 | inactive: 4.77%
O=C(NC1CCCCC1)c1ccccc1C(F)(F)F | inactive: 11.1%
CC(C)Oc1ccc(CN2CCC2(C)C(=O)Nc2ccc(Cl)c(Cl)c2)cc1 (stereo not drawn) | inactive: 17.8%
COc1cccc(-c2ocnc2C(=O)Nc2ccc3c(c2)CCC3)c1 | inactive: 7.99%
COc1ccccc1-n1cc(CN2CCN(CC(C)C)C(CCO)C2)cn1 (stereo not drawn) | inactive: 2.89%
COc1ccc(S(=O)(=O)N[C@@H](Cc2ccc(Cl)cc2)C(=O)N2CC[C@@]3(O)CCCC[C@H]3C2)cc1 | inactive: -15.5%
CC(C)(C)NC(=O)NC(=O)CN1C(=O)NC(C)(c2ccccc2)C1=O (stereo not drawn) | inactive: -0.467%
Cc1ccc(C(=O)NCCCNC(=O)c2ccc(C)nc2)cc1 | inactive: 2.87%
Cc1cc(NC(=O)c2ccc3c(c2)OCCO3)ccc1NC(=O)c1ccco1 | inactive: -21.8%
Cc1onc(-c2ccccc2Cl)c1C(=O)N1CCN(c2ccc(F)cc2)CC1 | inactive: 4.88%
COC(=O)c1sc2nc(-c3ccccc3)nc(N3CCN(C)CC3)c2c1C | inactive: 14.2%
O=C(c1ccco1)N1CCN(C(=O)c2ccccc2NS(=O)(=O)c2ccc(F)cc2)CC1 | inactive: -1.01%
